Experiment [1] concerns the target T1, Flag-STRN3, over-expressed in A549 cells (human) (UniProt Q13033).
T1 sequence: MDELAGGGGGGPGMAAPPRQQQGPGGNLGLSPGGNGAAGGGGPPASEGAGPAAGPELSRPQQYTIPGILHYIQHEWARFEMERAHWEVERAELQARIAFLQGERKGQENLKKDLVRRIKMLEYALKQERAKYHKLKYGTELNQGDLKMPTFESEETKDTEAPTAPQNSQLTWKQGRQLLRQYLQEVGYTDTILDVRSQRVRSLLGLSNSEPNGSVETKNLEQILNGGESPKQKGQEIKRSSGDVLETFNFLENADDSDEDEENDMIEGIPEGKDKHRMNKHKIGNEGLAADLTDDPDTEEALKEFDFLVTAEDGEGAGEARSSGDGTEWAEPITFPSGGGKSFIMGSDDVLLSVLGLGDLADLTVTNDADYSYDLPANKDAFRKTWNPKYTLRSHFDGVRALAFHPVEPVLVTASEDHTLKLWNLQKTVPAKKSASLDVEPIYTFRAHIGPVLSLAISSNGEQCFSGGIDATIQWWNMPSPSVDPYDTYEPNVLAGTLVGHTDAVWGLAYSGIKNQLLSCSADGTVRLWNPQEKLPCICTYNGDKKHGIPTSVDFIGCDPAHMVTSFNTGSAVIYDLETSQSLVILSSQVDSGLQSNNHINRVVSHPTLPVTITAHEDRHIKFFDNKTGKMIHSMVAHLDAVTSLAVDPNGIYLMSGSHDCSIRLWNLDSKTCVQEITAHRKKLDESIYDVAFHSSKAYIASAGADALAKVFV
The experiment can be described thus: co-IP; A549 cell lysate with over-expressed Flag-STRN3; immunoprecipitation of Flag-STRN3, blot for endogenous pS211 GR and endogenous PPP2CA; without or with Dex (Supplementary S7).

Chains of the proteins cited; added tags and fusions are not shown. Lines headed by an entry give the natural chain unless they say otherwise; changes in a name come on top. A line that says so, or that is headed by a name, gives the form on record, which may keep a tag or linker. Residues count along the entry.
UniProt P04150: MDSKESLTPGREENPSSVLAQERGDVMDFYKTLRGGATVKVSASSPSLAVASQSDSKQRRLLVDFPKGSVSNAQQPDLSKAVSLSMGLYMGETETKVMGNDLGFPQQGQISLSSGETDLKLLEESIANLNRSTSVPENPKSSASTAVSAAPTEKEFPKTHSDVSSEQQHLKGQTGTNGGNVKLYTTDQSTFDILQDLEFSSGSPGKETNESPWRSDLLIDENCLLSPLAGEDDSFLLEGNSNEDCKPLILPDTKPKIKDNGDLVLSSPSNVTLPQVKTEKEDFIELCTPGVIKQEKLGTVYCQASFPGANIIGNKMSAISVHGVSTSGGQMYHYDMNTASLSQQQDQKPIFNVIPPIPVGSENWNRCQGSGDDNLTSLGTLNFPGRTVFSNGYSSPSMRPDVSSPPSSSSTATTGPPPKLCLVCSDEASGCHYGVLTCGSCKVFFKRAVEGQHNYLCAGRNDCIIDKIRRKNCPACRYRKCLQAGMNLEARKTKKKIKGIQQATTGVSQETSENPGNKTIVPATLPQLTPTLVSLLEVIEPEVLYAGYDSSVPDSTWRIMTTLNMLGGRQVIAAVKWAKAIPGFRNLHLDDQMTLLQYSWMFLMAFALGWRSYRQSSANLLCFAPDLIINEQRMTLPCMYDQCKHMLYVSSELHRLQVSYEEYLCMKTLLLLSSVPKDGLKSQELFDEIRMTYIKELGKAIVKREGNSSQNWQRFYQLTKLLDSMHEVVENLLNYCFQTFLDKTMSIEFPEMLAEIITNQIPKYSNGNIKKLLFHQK
Flag-GR Del487-777: residues 1-486 of P04150
Flag-GR Del417-777: residues 1-416 of P04150
Flag-GR Del1-401: residues 402-777 of P04150
Flag-GR Del1-416: residues 417-777 of P04150
Flag-GR Del417-486 (P04150, form named): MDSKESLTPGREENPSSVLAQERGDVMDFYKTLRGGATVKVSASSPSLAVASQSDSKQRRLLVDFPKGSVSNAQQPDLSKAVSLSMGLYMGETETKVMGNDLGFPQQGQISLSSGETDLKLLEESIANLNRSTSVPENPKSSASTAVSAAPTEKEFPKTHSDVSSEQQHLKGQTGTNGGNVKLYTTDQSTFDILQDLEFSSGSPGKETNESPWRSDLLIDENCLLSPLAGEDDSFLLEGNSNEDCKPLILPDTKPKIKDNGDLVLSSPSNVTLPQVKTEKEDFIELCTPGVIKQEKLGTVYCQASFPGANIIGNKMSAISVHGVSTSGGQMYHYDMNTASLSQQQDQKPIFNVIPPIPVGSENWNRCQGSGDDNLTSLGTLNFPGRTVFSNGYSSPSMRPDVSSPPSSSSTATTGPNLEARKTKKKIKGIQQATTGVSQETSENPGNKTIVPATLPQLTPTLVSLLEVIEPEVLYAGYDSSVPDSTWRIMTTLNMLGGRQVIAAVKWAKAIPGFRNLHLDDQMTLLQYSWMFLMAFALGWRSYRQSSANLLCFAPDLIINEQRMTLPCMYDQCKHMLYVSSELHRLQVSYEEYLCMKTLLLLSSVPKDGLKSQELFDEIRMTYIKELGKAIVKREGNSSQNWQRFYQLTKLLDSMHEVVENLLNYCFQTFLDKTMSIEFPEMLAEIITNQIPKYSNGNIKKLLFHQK
UniProt P67775: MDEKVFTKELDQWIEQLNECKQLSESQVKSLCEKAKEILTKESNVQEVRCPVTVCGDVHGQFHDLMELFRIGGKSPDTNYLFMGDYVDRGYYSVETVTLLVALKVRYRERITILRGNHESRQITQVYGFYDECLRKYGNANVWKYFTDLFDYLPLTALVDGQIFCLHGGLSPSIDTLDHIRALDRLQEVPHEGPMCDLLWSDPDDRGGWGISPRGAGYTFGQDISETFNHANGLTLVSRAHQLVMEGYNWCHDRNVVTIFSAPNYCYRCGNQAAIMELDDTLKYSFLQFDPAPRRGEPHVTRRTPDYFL

The target of experiment [2] is Flag-GR Del417-777 (human) (UniProt P04150). The experiment can be described thus: co-IP; HEK293T cells transfected in 10 cm dishes; lysates on Anti-Flag M2 Affinity Gel overnight at 4 °C; washed 4x in buffer A with 150 mM NaCl and 0.5% Triton-X 100; immunoblot; cells treated with vehicle or 1 µM Dex for 2 h.
The target in experiment [3] is Flag-GR Del487-777 (human) (UniProt P04150). The experiment is described as above.
Experiment [4] deals with T2, Flag-STRN3 (pMet7-Flag-STRN3), in HEK293T (human) (UniProt Q13033).
T2 sequence: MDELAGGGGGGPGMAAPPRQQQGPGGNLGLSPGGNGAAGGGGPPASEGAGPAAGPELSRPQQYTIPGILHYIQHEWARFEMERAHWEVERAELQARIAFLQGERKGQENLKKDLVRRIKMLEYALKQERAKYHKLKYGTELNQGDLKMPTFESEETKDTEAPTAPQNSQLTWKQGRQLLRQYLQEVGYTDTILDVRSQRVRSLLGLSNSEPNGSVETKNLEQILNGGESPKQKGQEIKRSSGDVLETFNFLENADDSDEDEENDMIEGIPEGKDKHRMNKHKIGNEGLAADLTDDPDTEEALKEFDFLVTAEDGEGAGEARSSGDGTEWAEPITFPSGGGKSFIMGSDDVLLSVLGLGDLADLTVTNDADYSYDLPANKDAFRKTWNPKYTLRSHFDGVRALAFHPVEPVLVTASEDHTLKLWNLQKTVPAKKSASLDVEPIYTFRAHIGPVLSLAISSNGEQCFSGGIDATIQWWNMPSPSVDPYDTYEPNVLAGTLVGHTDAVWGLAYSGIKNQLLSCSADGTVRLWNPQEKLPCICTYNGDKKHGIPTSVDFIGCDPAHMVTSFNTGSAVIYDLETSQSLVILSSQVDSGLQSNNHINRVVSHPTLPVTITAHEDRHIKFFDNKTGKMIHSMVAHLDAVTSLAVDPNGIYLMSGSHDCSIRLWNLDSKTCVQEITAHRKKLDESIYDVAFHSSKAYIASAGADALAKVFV
The experiment is described as above.

Experiment [5] has as its target human glucocorticoid receptor alpha, MAPPIT bait (pCLG-hGRα) (human) (UniProt P04150). The experiment can be described thus: two-hybrid; MAPPIT (mammalian protein-protein interaction trap) in HEK293T cells; GR bait on a mutated Leptin receptor, STRN3 prey on a gp130 fragment, rPAP1-Luc reporter; leptin (100 ng/ml) plus medium or leptin plus Dex (1 µM), 24 h.
Experiment [6] has as its target Flag-GR (wild type) (human) (UniProt P04150). The experiment can be described thus: co-IP; HEK293T cells transfected in 10 cm dishes; lysates on Anti-Flag M2 Affinity Gel overnight at 4 °C; washed 4x in buffer A with 150 mM NaCl and 0.5% Triton-X 100; immunoblot; cells treated with vehicle or 1 µM Dex for 2 h. In general terms: A western blot detects proteins with antibodies after separation by electrophoresis.

The next experiment addresses Flag-GR Del1-401 (human) (UniProt P04150). The experiment is described as above.
The next experiment deals with Flag-GR Del1-416 (human) (UniProt P04150). The experiment is described as above.
The target of experiment [7] is Flag-GR Del417-486 (human) (UniProt P04150). Described as above.
Experiment [8] addresses Flag-GR Del417-777 (human) (UniProt P04150). The experiment is described as above. The source holds these as a separate data set.
Experiment [9] has as its target Flag-GR Del487-777 (human) (UniProt P04150). The experiment is described as above. The source holds these as a separate data set.
Another experiment deals with Flag-GR S211A (human) (UniProt P04150). The description is as above.

Where two headings read alike, the source gives them in different places. Results are given in words; binding and its absence hold for the method and conditions named. For some assays here: In cells and extracts the contact can be indirect. Some binding calls cover weakened binding; strength is not graded here. For some assays here: Sequences can lack the tags named with a protein.

“endogenous GR phosphorylated at S211, A549 cells (from UniProt P04150 1-777) (receptor)”: the binding result in experiment [1] is recorded as “binds”.
In the case of “endogenous PPP2CA of HEK293T cells (from UniProt P67775 1-309) (enzyme)”, the binding result in experiment [2] and in experiment [3] was “no binding” in each case.
With “endogenous PPP2CA of A549 cells (from UniProt P67775 1-309) (enzyme)”, the binding entry in [1] is recorded as “binds”.
In the case of “CFP-GR (pECFP-GRα) (from UniProt P04150 1-777) (receptor)”, the binding result in [4] is given as “binds”.
“PPP2CA, catalytic subunit of protein phosphatase 2A, over-expressed (from UniProt P67775 1-309) (enzyme)”: the binding entry in experiment [4] is “binds”.

B1: human Striatin-3 isoform alpha, MAPPIT prey (pMG1-hSTRN3) (protein, UniProt Q13033-2 1-713)
chain: MDELAGGGGGGPGMAAPPRQQQGPGGNLGLSPGGNGAAGGGGPPASEGAGPAAGPELSRPQQYTIPGILHYIQHEWARFEMERAHWEVERAELQARIAFLQGERKGQENLKKDLVRRIKMLEYALKQERAKYHKLKYGTELNQGDLKMPTFESEETKDTEAPTAPQNSQLTWKQGRQLLRQYLQEVGYTDTILDVRSQRVRSLLGLSNSEPNGSVETKNLEQILNGGESPKQKGQEIKRSSGDVLETFNFLENADDSDEDEENDMIEGIPEGKDKHRMNKHKIGNEGLAADLTDDPDTEEALKEFDFLVTAEDGEGAGEARSSGDGTEWAEPITFPSGGGKSFIMGSDDVLLSVLGLGDLADLTVTNDADYSYDLPANKDAFRKTWNPKYTLRSHFDGVRALAFHPVEPVLVTASEDHTLKLWNLQKTVPAKKSASLDVEPIYTFRAHIGPVLSLAISSNGEQCFSGGIDATIQWWNMPSPSVDPYDTYEPNVLAGTLVGHTDAVWGLAYSGIKNQLLSCSADGTVRLWNPQEKLPCICTYNGDKKHGIPTSVDFIGCDPAHMVTSFNTGSAVIYDLETSQSLVILSSQVDSGLQSNNHINRVVSHPTLPVTITAHEDRHIKFFDNKTGKMIHSMVAHLDAVTSLAVDPNGIYLMSGSHDCSIRLWNLDSKTCVQEITAHRKKLDESIYDVAFHSSKAYIASAGADALAKVFV
For the molecule B1, the binding result in [5] was “binds”.

B2: YFP-STRN3 (pMet7-YFP-STRN3a) (protein, UniProt Q13033-2 1-713)
chain: MDELAGGGGGGPGMAAPPRQQQGPGGNLGLSPGGNGAAGGGGPPASEGAGPAAGPELSRPQQYTIPGILHYIQHEWARFEMERAHWEVERAELQARIAFLQGERKGQENLKKDLVRRIKMLEYALKQERAKYHKLKYGTELNQGDLKMPTFESEETKDTEAPTAPQNSQLTWKQGRQLLRQYLQEVGYTDTILDVRSQRVRSLLGLSNSEPNGSVETKNLEQILNGGESPKQKGQEIKRSSGDVLETFNFLENADDSDEDEENDMIEGIPEGKDKHRMNKHKIGNEGLAADLTDDPDTEEALKEFDFLVTAEDGEGAGEARSSGDGTEWAEPITFPSGGGKSFIMGSDDVLLSVLGLGDLADLTVTNDADYSYDLPANKDAFRKTWNPKYTLRSHFDGVRALAFHPVEPVLVTASEDHTLKLWNLQKTVPAKKSASLDVEPIYTFRAHIGPVLSLAISSNGEQCFSGGIDATIQWWNMPSPSVDPYDTYEPNVLAGTLVGHTDAVWGLAYSGIKNQLLSCSADGTVRLWNPQEKLPCICTYNGDKKHGIPTSVDFIGCDPAHMVTSFNTGSAVIYDLETSQSLVILSSQVDSGLQSNNHINRVVSHPTLPVTITAHEDRHIKFFDNKTGKMIHSMVAHLDAVTSLAVDPNGIYLMSGSHDCSIRLWNLDSKTCVQEITAHRKKLDESIYDVAFHSSKAYIASAGADALAKVFV
Consider B2, for which the binding result in [6] is “binds”; in the experiment with Flag-GR Del1-401 (human), “binds”; in the experiment with Flag-GR Del1-416 (human), “binds”; in experiment [7], “binds”; in experiment [8] it was “no binding”; in experiment [9], “binds weakly”. Also, the binding result with Flag-GR S211A (human) was “binds”.

The values above are taken from publication PMC5567040.
